The values below come from the supplement of paper PMC11876631.

This series concerns the target Escherichia coli (laboratory strain). The series can be described thus: barcode share on antibiotic plates over drug-free plates; higher = less susceptible. The procedure: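 A pool of E. coli strains, each edited to carry one amino-acid change in an essential protein, was grown for 48 h on minimal glucose agar with or without antibiotic; strain barcodes were sequenced; mean of two replicates.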

[1] abbreviates: antibiotic: carbenicillin, 2× MIC (3.1 µg/mL).
Where [2] appears, read: antibiotic: gentamicin, 2× MIC (MIC 0.45 µg/mL).

Numbering of substitutions follows the chain as printed. Names and notes keep the numbering of the source. ± gives the standard deviation of the averaged measurements. Laboratory Escherichia coli strains with one amino-acid change in an essential protein, pooled on minimal glucose agar with carbenicillin or gentamicin at twice the control MIC (plus kanamycin and chloramphenicol for the plasmids), 48 h. Fold change of barcode share against drug-free plates; higher = less susceptible. Active = above 20 in both replicates (the paper's putatively resistant). '<' = one read or none on drug, '>' = one read or none on a drug-free plate. Shares are relative, so most strains fall below 1 when a few take over. Listed are strains with at least 15 reads on both drug-free plates, and hits; most hits rest on fewer reference reads. Replicate rank correlation about 0.5. Edits are read from barcodes.

B1: serC V171A (protein)
chain: MAQIFNFSSGPAMLPAEVLKQAQQELRDWNGLGTSVMEVSHRGKEFIQVAEEAEKDFRDLLNVPSNYKVLFCHGGGRGQFAAVPLNILGDKTTADYVDAGYWAASAIKEAKKYCTPNVFDAKVTVDGLRAVKPMREWQLSDNAAYMHYCPNETIDGIAIDETPDFGADVVAAADFSSTILSRPIDVSRYGVIYAGAQKNIGPAGLTIVIVREDLLGKANIACPSILDYSILNDNGSMFNTPPTFAWYLSGLVFKWLKANGGVAEMDKINQQKAELLYGVIDNSDFYRNDVAKANRSRMNVPFQLADSALDKLFLEESFAAGLHALKGHRVVGGMRASIYNAMPLEGVKALTDFMVEFERRHG
Turning to B1, the “fold change of barcode share” value is 0.371 ± 0.022 under setting [1] and 0.197 ± 0.27 under setting [2].

B2: serC L70Q (protein)
chain: B1 chain with L70Q, A171V
Consider B2, for which the “fold change of barcode share” value reads like this: under setting [1], 0.446 ± 0.0076; under setting [2], 0.00685 ± 0.0047.

B3: serC V171P (protein)
chain: B1 chain with A171P
On to B3, for which the “fold change of barcode share” value is, setting by setting: under setting [1], 0.293 ± 0.034; under setting [2], 0.0314 ± 0.032.

B4: serC V171W (protein)
chain: B1 chain with A171W
For the protein B4, the “fold change of barcode share” value reads like this: under setting [1], 0.487 ± 0.38; under setting [2], 0.0943 ± 0.12.

B5: serC L70A (protein)
chain: B1 chain with L70A, A171V
Take B5: the “fold change of barcode share” value is 0.807 ± 0.38 under setting [1] and less than 0.00936 under setting [2].

B6: serC V171Q (protein)
chain: B1 chain with A171Q
B6: the “fold change of barcode share” value under setting [1] stood at 0.541 ± 0.043.

B7: serC L70W (protein)
chain: B1 chain with L70W, A171V
For B7, the “fold change of barcode share” value reads like this: under setting [1], 0.424 ± 0.15; under setting [2], less than 0.00621.

B8: serC L70D (protein)
chain: B1 chain with L70D, A171V
Consider B8, for which the “fold change of barcode share” value by setting is: under setting [1], 0.621 ± 0.19; under setting [2], 0.00939 ± 0.0079.

B9: serB F210P (protein)
chain: MPNITWCDLPEDVSLWPGLPLSLSGDEVMPLDYHAGRSGWLLYGRGLDKQRLTQYQSKLGAAMVIVAAWCVEDYQVIRLAGSLTARATRLAHEAQLDVAPLGKIPHLRTPGLLVMDMDSTAIQIECIDEIAKLAGTGEMVAEVTERAMRGELDFTASLRSRVATLKGADANILQQVRENLPLMPGLTQLVLKLETLGWKVAIASGGFTFPAEYLRDKLRLTAVVANELEIMDGKFTGNVIGDIVDAQYKAKTLTRLAQEYEIPLAQTVAIGDGANDLPMIKAAGLGIAYHAKPKVNEKAEVTIRHADLMGVFCILSGSLNQK
Consider B9, for which the “fold change of barcode share” value runs as follows: under setting [1], 0.513 ± 0.044; under setting [2], 0.0114 ± 0.0068.

B10: serB M309D (protein)
chain: B9 chain with P210F, M309D
On to B10, for which the “fold change of barcode share” value under setting [1] stood at 1.37 ± 0.6 and the “fold change of barcode share” value under setting [2] was determined as 0.062 ± 0.072.

B11: serB M309W (protein)
chain: B9 chain with P210F, M309W
As to B11, the “fold change of barcode share” value runs as follows: under setting [1], 0.671 ± 0.11; under setting [2], 0.00833 ± 0.0046.

B12: serB M309A (protein)
chain: B9 chain with P210F, M309A
Take B12: the “fold change of barcode share” value under setting [1] was determined as 0.534 ± 0.049 and the “fold change of barcode share” value under setting [2] stood at 0.0185 ± 0.0042.

B13: serB M309Q (protein)
chain: B9 chain with P210F, M309Q
As to B13, the “fold change of barcode share” value under setting [1] turned out to be 0.684 ± 0.24 and the “fold change of barcode share” value under setting [2] worked out at 0.00747 ± 0.0054.

B14: serB M309P (protein)
chain: B9 chain with P210F, M309P
With B14, under setting [1], the “fold change of barcode share” value is 2.78 ± 0.48.
